We go through 125 compounds from paper PMC9574860, “Chemical Toolkit for PARK7: Potent, Selective, and High-Throughput” (Journal of Medicinal Chemistry, 2022).

The campaign covered roughly 7,900 compounds. About 400 (5.1%) showed an effect of 50% or more. This is one part of the list.

Sequence of Parkinson's disease protein 7 (PARK7/DJ1) (Q99497 whole entry, looked up, the tested form may be a part): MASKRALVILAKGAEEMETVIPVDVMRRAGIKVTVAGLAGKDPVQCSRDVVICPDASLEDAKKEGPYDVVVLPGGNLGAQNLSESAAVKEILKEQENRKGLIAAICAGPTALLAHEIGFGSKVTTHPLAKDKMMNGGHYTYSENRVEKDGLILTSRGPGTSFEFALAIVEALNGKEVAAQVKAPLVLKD

This experiment addresses Parkinson's disease protein 7 (PARK7/DJ1) (human, UniProt Q99497). The experiment in a line: primary screen, percent inhibition; read as competition with a fluorescent probe by fluorescence polarization; higher = more effect of the substance. The following applies: 100 µM. An outline of the steps: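 Fluorescence-polarization probe displacement (JYQ-107, 20 nM final, 2 h) after 2 h preincubation of PARK7 (0.2 μM final) with each fragment at 100 μM final. Read-out ex/em 480/520 nm; remaining activity derived from FP signal loss relative to reference controls.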
`N#Cc1ccc(OCC(F)F)cn1`: the Inhibition % came to 6.74%.

`O=C(O)C=CC(=O)Nc1ccccc1O`: the Inhibition % turned out to be 20.6%. The same measure for `C=CC(=O)NC1(c2ccc(F)cc2F)CCOCC1`: 6.35%; for `Cc1ccc(C=CS(=O)(=O)NC2CC(=O)N(C)C2)cc1` (centres unmarked): 12.5%.

For `CS(=O)(=O)C(C#N)=Cc1ccc(O)cc1`, the Inhibition % is 15.2%. The same measure for `C=CC(=O)N1CCNC(=O)CC1C` (centres unmarked): 29.8%; for `Cc1cc(C(=O)CCl)c(C)n1CC(F)(F)F`: 1.46%; for `Cc1nn(CCCl)c(C)c1C(=O)O`: 7.84%. Consider `C=CC(=O)N1CCN(C(=O)c2ccco2)CC1`, for which the Inhibition % is on record as 4.28%. Turning to `C=CC(=O)NC1(C)CCOCC1`, the Inhibition % amounted to 1.41%.

For `N#Cc1nc(-c2ccco2)oc1N1CCNCC1`, the Inhibition % stood at 9.97%. In the case of `COC(=O)c1cc(F)cc(B2OC(C)(C)C(C)(C)O2)c1` it was 2.89%; in that of `Clc1ccc(COCC2CO2)cc1` (centres unmarked), 12.4%; in that of `C=CC(=O)N[C@@H]1COCC[C@H]1OC` (racemic), 6.51%. In the case of `C=CC(=O)N1CCCC2(CCCOC2)C1` (centres unmarked), the Inhibition % stood at 11.3%. For `Cn1c(=O)oc2ccc(NC(=O)C(C#N)=CC3CC3)cc21`, the Inhibition % is 9.41%. In the case of `CS(=O)(=O)NCCc1ccc(C(=O)CCl)s1` it was 97.6%.

For the compound `C=CC(=O)N1CC(C)(C#N)C1`, the Inhibition % stood at 2.37%. As for `C=CC(=O)N1CCC(c2ncc(C(=O)O)o2)CC1`, the Inhibition % is 14.8%. For `CCC(CNC(=O)CCl)c1ccccc1` (centres unmarked), the Inhibition % was determined as 16.6%. In the case of `Cc1cc(OC2CCOC2=O)ccc1N` (centres unmarked), the Inhibition % was 7.05%.

Regarding `C=CC(=O)N1CCCC(n2ccnn2)CC1` (centres unmarked), the Inhibition % was 11.9%. In the case of `Cc1ccccc1C(=O)NC1CCN(C(=O)CCl)CC1` it was 25.2%; in that of `Cl.NCCN1C(=O)CSC1=O`, 75.6%. Turning to `Cn1ccnc1CN(C#N)c1ccc(F)cc1`, the Inhibition % is given as -1.51%. With `C=CC(=O)N1Cc2ccccc2C(C(=O)OC(C)(C)C)C1` (centres unmarked), the Inhibition % was determined as 11.5%.

As for `C=CC(=O)N(Cc1cncs1)C1CCN(C(C)=O)CC1`, the Inhibition % was found to be 5.13%. `C=CC(=O)N1CCN(C2CCOC2)CC1` (centres unmarked): the Inhibition % worked out at 5.2%. With `C=CC(=O)NCCS(=O)(=O)c1cccs1`, the Inhibition % amounted to 4.36%. As to `C#CCN1CCN(C(=O)CCl)CC1.Cl`, the Inhibition % turned out to be 18.8%.

For `O=C1NC2C3CCC(C3)C12` (centres unmarked), the Inhibition % was found to be 0.71%.

For `CC1(C)OB(c2ccnnc2)OC1(C)C`, the Inhibition % worked out at 1.99%.

In the case of `Nc1ccc(S(=O)(=O)F)c(F)c1`, the Inhibition % is on record as 12.3%.

As for `C=CC(=O)N1CCC(n2cc(C(=O)O)nn2)C1` (centres unmarked), the Inhibition % turned out to be 10.7%.

Regarding `O=C1C[C@H](NS(=O)(=O)c2csc3ccccc23)CO1`, the Inhibition % is listed as 0.617%. As to `N#Cc1nc(OCC2CC2)ccc1Cl`, the Inhibition % amounted to 1.17%.

Turning to `COc1ccc(CS)c(OC)c1`, the Inhibition % is given as 5.78%. As to `C=CC(=O)N1CCOC(c2ccccc2Cl)C1` (centres unmarked), the Inhibition % is on record as 5.95%. Turning to `CC1CN(C(=CC#N)c2ccc(F)cc2)CC(C)O1` (centres unmarked), the Inhibition % is given as 11%. `CS(=O)(=O)OCC1CCCC(F)(F)C1` (centres unmarked): the Inhibition % worked out at 10%. For `O=S(=O)(C=Cc1ccccc1)NCc1cccnc1`, the Inhibition % is 15.5%. On to `O=S(=O)(C=Cc1ccccc1)Nc1ccc(F)c(F)c1`, for which the Inhibition % is listed as 1.18%. On to `CCOc1ccc(C)cc1S(=O)(=O)n1ccnc1C`, for which the Inhibition % came out at 3.57%. The same measure for `Nc1nnc(SC2CCOC2=O)[nH]1` (centres unmarked): 1.57%; for `CS(=O)(=O)C(C#N)=Cc1ccccc1`: 5.36%. Take `Cn1cc(CN2C[C@@H](C(F)(F)F)[C@H](C(N)=O)C2)cc1C#N`: the Inhibition % is 10.7%. The same measure for `C=CC(=O)N1CCCc2ccc(S(C)(=O)=O)cc21`: 12.6%; for `CCN(CCO)C(=O)c1ccc2c(=O)[nH]c(S)nc2c1`: 15.7%; for `O=S(=O)(c1ccc(S)nc1)N1CCCC1`: 20.5%.

Take `C=CC(=O)NCC1=CCCOC1`: the Inhibition % came out at 2.71%. Take `CC1CN(C(=O)C=Cc2ccnn2C)CC(C)N1.Cl` (centres unmarked): the Inhibition % is reported as 14.8%.

On to `N#Cc1ccccc1C=CC(=O)N1CCNC(=O)C1`, for which the Inhibition % is listed as 2.94%.

For the compound `O=C(O)c1ccc(S(=O)(=O)F)cc1`, the Inhibition % is 49.1%. In the case of `C=CC(=O)NCC1CC2(CCC2)CO1` (centres unmarked) it was 5.74%. Regarding `ClCCCc1nc2ccccc2o1`, the Inhibition % is given as 16.4%. As to `C=CC(=O)NCC(C)(O)c1ccc(C)o1` (centres unmarked), the Inhibition % amounted to 10.5%. Regarding `O=C(CN1C(=O)CCC1=O)Nc1ccccc1C(F)(F)F`, the Inhibition % came out at 5.37%. `Cn1c(=O)c(C(=O)CCl)c(N)n(Cc2ccccc2)c1=O`: the Inhibition % was found to be 18.2%. In the case of `C=CC(=O)NCC1CCCSC1` (centres unmarked) it was 13.8%; in that of `Cc1cc(C)cc(NC(=O)CN2CCSC2=O)c1`, 5%. Consider `COc1cccc(CN(C)C(=O)CCl)c1`, for which the Inhibition % stood at 76.7%. As to `C=CC(=O)NC1CCN(CC(F)F)C1` (centres unmarked), the Inhibition % stood at 6.23%. Consider `CN(C)C=CC(=O)c1ccc(F)cc1`, for which the Inhibition % was 4.05%. For `ClCC1Cc2ccccc2O1` (centres unmarked), the Inhibition % was determined as 0.61%. Take `N#Cc1ccc(NC2CCC(O)CC2)cn1` (centres unmarked): the Inhibition % is recorded as 5.17%. In the case of `Cc1nc(-c2cccc(NC(=O)CCl)c2)cs1` it was 20.6%; in that of `COc1cccc(C=C(C#N)C(=O)O)c1`, 3.76%; in that of `N#Cc1cc(N2CC(O)CC2c2cccc(F)c2)ccn1` (centres unmarked), 12.9%.

As for `N#CC(=Cc1cccnc1)c1ccc(C(F)(F)F)cn1`, the Inhibition % came to 12.6%. Turning to `CCc1nc(C(C#N)=Cc2cnn(C)c2)sc1C`, the Inhibition % is 2.61%. `CCc1nccn1S(=O)(=O)c1cc(C)c(C)cc1OC`: the Inhibition % is given as -0.95%. As to `CC1(C)COC(=O)C1NC(=O)CN1CCCCC1=O` (centres unmarked), the Inhibition % is reported as 0.524%. For `C=CC(=O)N1CCc2c(cnn2-c2ccccc2)C1`, the Inhibition % was 8.71%.

For `CC(c1ccc(F)c(F)c1)N(C)C(=O)CCl` (centres unmarked), the Inhibition % is 92.5%. `CN(c1ccn(C)n1)S(=O)(=O)c1ccccc1S(=O)(=O)F`: the Inhibition % is 97.9%. With `CSc1ccc(C(=O)CCl)cc1`, the Inhibition % is given as 89.6%. For `Cn1nnc2ccc(B3OC(C)(C)C(C)(C)O3)cc21`, the Inhibition % was determined as 6.42%.

On to `O=C1OCCC1n1nnc(-c2ccc(F)cc2)n1` (centres unmarked), for which the Inhibition % is 4.53%. Regarding `Cc1nnc(C(C)Cl)o1` (centres unmarked), the Inhibition % was found to be 1.55%. In the case of `C=CC(=O)NCC(=O)NC1(C)CCCCC1` it was 13.6%; in that of `C=CC(=O)NC1CCCC1CNS(C)(=O)=O` (centres unmarked), 5.32%. For the compound `O=c1onc(-c2ccccn2)n1Cc1ccccc1F`, the Inhibition % amounted to 2.03%. The same measure for `C=CC(=O)N1CCSCC1c1ccc(C)o1` (centres unmarked): 7.34%. On to `Cl.ClCCc1nc2ccccc2[nH]1`, for which the Inhibition % turned out to be 3.05%. Take `N#Cc1ccc(N2CCOc3cccc(F)c3C2)cn1`: the Inhibition % was found to be 0.655%. `COc1ccccc1NC(=O)c1ccc(NC(=O)CCl)cc1`: the Inhibition % came out at 28.8%. Turning to `C=CC(=O)N1CCN(C(=O)C2CC2)C1`, the Inhibition % is listed as 2.16%.

Take `C=CC(=O)NC(C)c1cc(F)ccc1N1CCOCC1` (centres unmarked): the Inhibition % is reported as 6.03%. Turning to `N#Cc1ncn(CC(=O)NCCC2=CCCCC2)n1`, the Inhibition % was 6.29%. `N#Cc1ccc(N[C@H]2c3ccccc3C[C@H]2O)cn1`: the Inhibition % was 37%. Take `CC1CCCCC1NC(=O)CCl` (centres unmarked): the Inhibition % is given as 3.04%. Turning to `S=c1cn[nH]c2ccccc12`, the Inhibition % was 20.2%.

For the compound `CCNS(=O)(=O)c1ccc(B2OC(C)(C)C(C)(C)O2)c(C)c1`, the Inhibition % is 5.32%.

Regarding `N#Cc1ncn(CCC(=O)NCc2ccc(F)cc2)n1`, the Inhibition % is reported as 7.22%. In the case of `C=CC(=O)NCc1cccc(-c2cnco2)c1` it was 5.28%; in that of `COCCCN1CCCN(C(=O)c2ccc(C#N)[nH]2)CC1`, 7.64%; in that of `C=CCc1ccccc1OCC1CO1` (centres unmarked), 8.19%.

In the case of `CCOc1ncccc1CNC(=O)c1c[nH]c(C#N)c1`, the Inhibition % came to 6.1%. For the compound `CCCn1c(=O)n(C)c(=O)c2c(S)nc(C(C)C)nc21`, the Inhibition % amounted to 9.53%. Take `C=CC(=O)Nc1ccc(OC)nc1`: the Inhibition % came out at 45.7%.

On to `Cc1cc(C=C(C#N)C(N)=O)ccc1F`, for which the Inhibition % worked out at 1.94%.

Take `CC1(C)OB(c2ccc(S(C)(=O)=O)cc2F)OC1(C)C`: the Inhibition % was determined as 5.23%. In the case of `C=CC(=O)N1CCOC(c2cccc(C(F)(F)F)c2)C1` (centres unmarked) it was 22.3%; in that of `C=CC(=O)N1CC2CCC(C1)O2`, 11.7%; in that of `C=CC(=O)N1CC(Oc2ccccc2)C1`, 9.92%. For `CC1(C)OB(c2cc(F)ccc2C#N)OC1(C)C`, the Inhibition % is -4.41%. In the case of `C=CC(=O)N1CCCCCCCC1` it was 7.56%. In the case of `C=CC(=O)N1CC2(CCOCC2)C1c1ccccc1` (centres unmarked), the Inhibition % is recorded as 11.9%.

For `COc1cccc(CCNC(=O)CCl)c1`, the Inhibition % came out at 25.9%. Take `CCCc1cc(NC(=O)CCl)n(-c2ccccc2)n1`: the Inhibition % came out at 31.6%. The same measure for `C=CC(=O)N[C@H]1CCCC[C@H]1CC(F)(F)F`: 8.64%; for `Cc1ccccc1CC(C)NC(=O)CCl` (centres unmarked): 3.74%; for `O=C(Oc1ccc(F)cc1)N1CCCCC1`: 9.05%.

For `CCc1ccc(C(=O)Cn2cnc(C#N)n2)cc1`, the Inhibition % is 4.24%.

For `C=CC(=O)N[C@H]1COC[C@H]1OC` (racemic), the Inhibition % is listed as 0.0503%.

Take `C=CC(=O)NCC1(c2cccc(F)c2)CC1`: the Inhibition % stood at 5.69%. The same measure for `C=CC(=O)N1CCOC(c2ccccc2)C1` (centres unmarked): 4.98%; for `Cc1nccn1CCCSc1cccnc1C#N`: 1.92%. Take `CC1(C)OB(c2cc(F)cc(Cn3ccnc3)c2)OC1(C)C`: the Inhibition % stood at 4.68%. Take `COC[C@@H]1C[C@H](OC)CN1Cc1cc(C#N)n(C)c1`: the Inhibition % is on record as 6.92%. With `N#Cc1cccc(C(=O)NNC(=O)CCl)c1`, the Inhibition % stood at 20.2%. Take `O=S(=O)(F)c1cccc(CO)c1`: the Inhibition % amounted to 96.8%. As for `CC1CC(N2CCCCC2Cn2cncn2)C(=O)O1` (centres unmarked), the Inhibition % is listed as 1.57%. Take `O=C(C=Cc1cscn1)N1CCOc2cc(F)ccc21`: the Inhibition % came to 5.46%.

With `C=CC(=O)Nc1ccc2nc(OC)sc2c1`, the Inhibition % is 6.55%.
